According to US20260207762A1 (ANAVEON, published 2026):

Molecular target: IL-2R on NK cells and CD8 T cells of murine splenocytes (C57BL/6 mice) (mouse)
Test: cell-based or functional assay

Row | Binder | EC50 NK cells (nM), pSTAT5+ cells in mouse splenocytes [nM] | EC50 CD8 cells (nM), pSTAT5+ cells in mouse splenocytes [nM]
1 | BFC885 (other) heavy: QVQLVESGGGVVQPGRSLRLSCAASGYTFSSYLIEWVRQAPGKGLEWVAVINPGSGGTNYADSVKGRFTISADKSKNTAYLQMNSLRAEDTAVYYCARWRGDGYYAYFDVWGQGTTVTVSSASTKGPSVFPLAPSSKSTSGGTAALGCLVKDYFPEPVTVSWNSGALTSGVHTFPAVLQSSGLYSLSSVVTVPSSSLGTQTYICNVNHKPSNTKVDKRV[not shown - human IgG1 Fc with changes] light: EIVLTQSPATLSVSPGERATLSCRASQSVSYGGGGSGGGGSGGGNFHLRPRDLISNINVIVLELKGSETTFMCEYADETATIVEFLNRWITFSQSIISTLTPTSSSTKKTQLQLEHLLLDLQMILNGINNYKNPKLTRMLTFKFYMPKKATELKHLQCLEEELKPLEEVLNLAQSKGGGGSGGGGSGGGGDSYMNWYQQKPGQAPRLLIYAASNLASGIPARFSGSGSGTEFTLTISSLQSEDAAVYYCQQSNEDPYTFGGGTKVEIKRTVAAPSVFIFPPSDEQLKSGTASVVCLLNNFYPREAKVQWKVDNALQSGNSQESVTEQDSKDSTYSLSSTLTLSKADYEKHKVYACEVTHQGLSSPVTKSFNRGEC | 2 | –
2 | XFO227 (other) heavy: EVQLVQSGAEVKKPGESLKISCKGSGYAFTNYLIEWVRQMPGKGLEWMGVINPGSGGTNYNEKFKGQVTISADKSISTAYLQWSSLKASDTAMYYCARWRGEGYYAYFDVWGQGTTVTVSSASTKGPSVFPLAPSSKSTSGGTAALGCLVKDYFPEPVTVSWNSGALTSGVHTFPAVLQSSGLYSLSSVVTVPSSSLGTQTYICNVNHKPSNTKVDKRV[not shown - human IgG1 Fc with changes] light: AIRLTQSPSSFSASTGDRVTITCKASQSVDYGGNFHLRPRDLISNINVIVLELKGSETTFMCEYADETATIVEFLNRWITFSQSIISTLTPTSSSTKKTQLQLEHLLLDLQMILNGINNYKNPKLTRMLTFKFYMPKKATELKHLQCLEEELKPLEEVLNLAQSKGGGDSYMNWYQQKPGKAPKLLIYAASNLESGVPSRFSGSGSGTDFTLTISSLQSEDFATYYCQQSNEDPYTFGGGTKVEIKRTVAAPSVFIFPPSDEQLKSGTASVVCLLNNFYPREAKVQWKVDNALQSGNSQESVTEQDSKDSTYSLSSTLTLSKADYEKHKVYACEVTHQGLSSPVTKSFNRGEC | – | 8

Other lines, results leading:

Row | EC50 NK cells (nM), pSTAT5+ cells in mouse splenocytes [nM] | EC50 CD8 cells (nM), pSTAT5+ cells in mouse splenocytes [nM] | Binder
3 | 0.9 | – | DRO069 (other) heavy: QVQLVESGGGVVQPGRSLRLSCAASGYTFSSYLIEWVRQAPGKGLEWVAVINPGSGGTNYADSVKGRFTISADKSKNTAYLQMNSLRAEDTAVYYCARWRGDGYYAYFDVWGQGTTVTVSSASTKGPSVFPLAPSSKSTSGGTAALGCLVKDYFPEPVTVSWNSGALTSGVHTFPAVLQSSGLYSLSSVVTVPSSSLGTQTYICNVNHKPSNTKVDKRV[not shown - human IgG1 Fc with changes] light: EIVLTQSPATLSVSPGERATLSCRASQSVSYGGGNFHLRPRDLISNINVIVLELKGSETTFMCEYADETATIVEFLNRWITFSQSIISTLTPTSSSTKKTQLQLEHLLLDLQMILNGINNYKNPKLTRMLTFKFYMPKKATELKHLQCLEEELKPLEEVLNLAQSKGGGGDSYMNWYQQKPGQAPRLLIYAASNLASGIPARFSGSGSGTEFTLTISSLQSEDAAVYYCQQSNEDPYTFGGGTKVEIKRTVAAPSVFIFPPSDEQLKSGTASVVCLLNNFYPREAKVQWKVDNALQSGNSQESVTEQDSKDSTYSLSSTLTLSKADYEKHKVYACEVTHQGLSSPVTKSFNRGEC
4 | 0.9 | – | ECV200 (other) heavy: QVQLVESGGGVVQPGRSLRLSCAASGYTFSSYLIEWVRQAPGKGLEWVAVINPGSGGTNYADSVKGRFTISADKSKNTAYLQMNSLRAEDTAVYYCARWRGDGYYAYFDVWGQGTTVTVSSASTKGPSVFPLAPSSKSTSGGTAALGCLVKDYFPEPVTVSWNSGALTSGVHTFPAVLQSSGLYSLSSVVTVPSSSLGTQTYICNVNHKPSNTKVDKRV[not shown - human IgG1 Fc with changes] light: EIVLTQSPATLSVSPGERATLSCRASQSVSYGGGGSGNFHLRPRDLISNINVIVLELKGSETTFMCEYADETATIVEFLNRWITFSQSIISTLTPTSSSTKKTQLQLEHLLLDLQMILNGINNYKNPKLTRMLTFKFYMPKKATELKHLQCLEEELKPLEEVLNLAQSKGGGGSGGDSYMNWYQQKPGQAPRLLIYAASNLASGIPARFSGSGSGTEFTLTISSLQSEDAAVYYCQQSNEDPYTFGGGTKVEIKRTVAAPSVFIFPPSDEQLKSGTASVVCLLNNFYPREAKVQWKVDNALQSGNSQESVTEQDSKDSTYSLSSTLTLSKADYEKHKVYACEVTHQGLSSPVTKSFNRGEC
